# Reference: the supplement of paper PMC3334620
# Over roughly 33,000 sequences, “E-score (-0.5 to 0.5)” has its median near -0.017; the highest 2% begin near 0.3. Some of the results follow.
# Biological target: T1, Sut1 (UniProt P53032)
# T1 sequence: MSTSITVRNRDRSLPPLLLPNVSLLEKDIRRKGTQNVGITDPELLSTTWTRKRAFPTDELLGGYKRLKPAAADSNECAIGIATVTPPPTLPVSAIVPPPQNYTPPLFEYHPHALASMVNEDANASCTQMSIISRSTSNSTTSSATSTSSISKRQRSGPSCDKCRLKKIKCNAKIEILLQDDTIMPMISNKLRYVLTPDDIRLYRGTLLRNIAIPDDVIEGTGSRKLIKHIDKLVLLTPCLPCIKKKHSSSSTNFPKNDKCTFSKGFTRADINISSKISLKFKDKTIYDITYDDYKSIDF
# Experiment: PBM E-score (8-mer binding enrichment) (E-score (-0.5 to 0.5)); higher = stronger / more preferred TF binding; most listed sequences are background and not binding sites
# Details: protein concentration: 200 nM; construct: GST-full length
# In short: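 Detection of bound protein used fluorescent anti-GST, with scans normalised by masliner. The proteins were GST-tagged yeast transcription factors applied at about 100-200 nM to universal all-10-mer Agilent arrays made double-stranded by primer extension. Each ungapped eight-base word, pooled with its reverse complement, was scored with an E-score from the Universal PBM Analysis Suite.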
row,Sequence,PBM E-score
1,ATGGAAAA,0.0999
2,ACGGGTCA,-0.337
3,CCTGATCG,-0.264
4,AAATTGAT,0.196
5,ATTTGTGA,0.043
6,GAGCTAAA,0.106
7,TCCTGCCA,-0.28
8,ATCAATGC,0.0217
9,AACATCCA,-0.0116
10,GGACAAAC,-0.0488
11,GAAAAGGA,0.217
12,ATAGCCAG,-0.129
13,CCACCAAG,-0.22
14,AAACCCAG,-0.0905
15,ACATCAAC,0.106
16,AATAACAC,0.264
17,GACCAAGC,0.0643
18,AGGCTGAG,-0.0842
19,CCAAAGTA,0.0294
20,GAAGTTAA,0.0179
21,ACATCAAT,0.201
22,CAAACCAC,-0.129
23,CGCTGTGC,-0.114
24,CGACAAGC,-0.302
25,CAACATCC,-0.0349

row,Sequence,PBM E-score
1,CCGGGAGC,-0.0765
2,AGGGACCT,-0.21
3,ATGATCTG,0.0866
4,AAATACAT,0.194
5,ACAACTGC,-0.0476
6,GATAGCAA,0.155
7,ATGCATTA,0.208
8,AGGACAAT,0.08
9,ACTGAGCC,-0.107
10,ACACAGAG,-0.0985
11,CCGTTATA,0.0818
12,GAGTCAGA,0.0675
13,AGTGTTAA,0.112
14,AAAAACGG,0.188
15,CCAATTAA,0.202
16,ACTAACAG,-0.00417
17,CTGTAGAA,0.0623
18,AGAGGAAA,0.066
19,CCGGCTGC,0.0356
20,CAATAAAA,0.136
21,AATCTCTG,-0.129
22,CTGATGGA,-0.218
23,AGAGAGAA,-0.0107
24,AAAAGGCC,-0.0796
25,ACGCCTTG,-0.0406

row,Sequence,PBM E-score
1,AGTCTGAA,-0.0182
2,AAAGCTTT,0.086
3,AGTACGGA,0.374
4,ACTCAGAC,-0.0915
5,ATAGTCTC,0.108
6,AAAACAGT,0.209
7,ACAGCCCG,-0.203
8,GCAGATTA,0.023
9,CAGTGCCG,-0.102
10,CGGGGTAG,0.198
11,AATTATTC,0.317
12,AGAAATTC,0.126
13,ACCACCAC,0.108
14,AGCTAAGG,-0.046
15,AAATCGCA,0.0779
16,CCTTGTGA,-0.0988
17,CGCTGCCC,-0.21
18,CGGTTTCA,0.0548
19,CAAGGTGG,0.0129
20,CACAACGA,0.0234
21,GAGGCCTA,-0.179
22,CTGAGCGA,-0.162
23,AGGGCGCA,-0.238
24,ATGGAGGA,-0.156
25,CAGGGTCA,-0.206

row,Sequence,PBM E-score
1,CACGTATC,0.0318
2,GGTAAAAC,-0.0242
3,ACAATCCG,0.0559
4,CTAGCAAG,-0.169
5,CAAACCTG,-0.11
6,GGAGAACA,0.175
7,CAGAGAGA,-0.2
8,AAATCCAA,0.156
9,GAAGGAGA,-0.123
10,ATAACTGG,-0.0188
11,ACGGTTCA,-0.232
12,GAGTTACC,-0.0127
13,GAACCGTC,-0.0465
14,AGAGATCT,-0.113
15,AGGCACAA,-0.121
16,ACGGGCTC,-0.306
17,GCGCGACA,-0.0666
18,GCACCAAC,-0.055
19,CAGAGCTC,-0.157
20,CCCCACTA,-0.349
21,CAGCATAC,-0.165
22,ATCTATTG,0.0481
23,TACGACTA,-0.0667
24,GCCACTTA,0.00087
25,GAGGTGCC,-0.138

row,Sequence,PBM E-score
1,GGGAATGA,0.0337
2,AGACGCGG,0.152
3,TAGATGAA,0.112
4,CCCGCAAC,0.092
5,GAGGCTAA,-0.00314
6,CGGCAGGA,-0.0907
7,AAAAACTG,0.12
8,CGGTGGCC,0.023
9,ACGCTAGT,-0.122
10,CAACCTCA,-0.181
11,GCCCTTGA,-0.229
12,CTACTGCC,-0.11
13,CGGAAGAA,0.245
14,TACGAACA,0.131
15,AAGCTGCA,-0.0968
16,AAGGTGAG,-0.216
17,AAGCCTCT,-0.29
18,CAAATTGA,-0.0107
19,CCGAATTA,0.166
20,CACGGTTC,-0.23
21,AAGCACCC,-0.244
22,GCGCAGTA,-0.0391
23,AGAACAGG,-0.0934
24,CATAATCC,-0.127
25,TTGTTAAA,0.145

row,Sequence,PBM E-score
1,ATATCTTC,0.196
2,GAATGGGA,-0.0732
3,CTTGCCCC,-0.0609
4,GATCGTCC,-0.0713
5,ACTACGTC,-0.236
6,ACATCTGC,-0.193
7,CTGAGGAC,-0.0483
8,GGTGTCGA,-0.131
9,ACCTACCT,0.025
10,ATGACGCC,-0.124
11,AAATATGA,0.114
12,ATCGAACG,-0.0472
13,ATAATCAT,0.237
14,CATGACCA,-0.237
15,ACCAGATC,-0.121
16,GGCTAGCA,-0.105
17,CCCGTGCG,-0.168
18,AGGGTAAA,0.0374
19,CCAATCAA,0.0316
20,AACATATG,0.0611
21,AACTTAAT,0.22
22,ACATAGTA,0.0863
23,CCTTGAGA,0.00321
24,CTATGCGA,-0.0701
25,CCAGTATC,-0.0266

row,Sequence,PBM E-score
1,AAGGAAAA,0.239
2,AGGGCAAT,-0.15
3,AAGGCGGC,-0.135
4,ACAACGCG,0.0166
5,GAGCTCGC,-0.0965
6,CGATCCTA,-0.052
7,AGGGAACC,-0.129
8,GAGTGTAA,-0.195
9,ATAATCCA,0.0339
10,ATAGGGAG,-0.219
11,CCCACTTC,-0.0765
12,ATATCCAG,-0.168
13,GGGTACGA,-0.197
14,ATCTACAT,0.123
15,TAAACATA,0.125
16,AAACATAA,0.0774
17,CCGGTCGA,-0.144
18,TACAAGTA,0.0389
19,GCACCGGC,-0.0791
20,AGGGCGTA,-0.194
21,ATCCTACG,-0.138
22,CGTGCCGA,-0.121
23,CGGTAGGA,-0.105
24,GCCGCCGA,-0.0122
25,ATTCACGA,0.145

row,Sequence,PBM E-score
1,AGGGATAA,0.0543
2,GACCCTGC,-0.286
3,ATTTGTTG,0.145
4,AGGCAAAG,-0.0491
5,AATGGAGA,0.0365
6,ACTAGTCT,-0.049
7,ATTGCAAA,0.236
8,CGTAAGTC,0.107
9,ACCATTCG,-0.0868
10,CGGTTAGC,-0.0715
11,GGGACAAC,-0.231
12,CGTTAATA,0.198
13,ATTAAGTA,0.175
14,GGGAAAAC,0.0484
15,GACTGTCC,-0.00572
16,CAAGCTTA,-0.108
17,GCCGGCCC,-0.119
18,CAATCAGG,-0.167
19,TATGACAA,0.0874
20,GCCTTGCC,-0.155
21,CAGCTACA,-0.0929
22,GACTAAGC,0.0931
23,CTTTAAAA,0.175
24,AATCTGAG,-0.00107
25,ACGGTCTG,-0.1

row,Sequence,PBM E-score
1,CAATACGA,0.0856
2,GAGTATAC,-0.00309
3,GTGCCCAA,-0.185
4,ACGGGTTG,-0.342
5,GGTAAGCA,-0.0897
6,ATGGGCGC,-0.254
7,TCTGTTAA,0.0688
8,AGCACGCA,-0.21
9,ACATGAGA,0.0979
10,ATTAGAAC,0.26
11,AAACCCCT,-0.185
12,ACTACGCT,0.052
13,TCAGGGCA,-0.382
14,TGCATCCA,0.0253
15,CCGAAGTC,0.269
16,CTACGCCA,-0.209
17,GCACACCC,-0.283
18,GATTGTAA,0.108
19,CAACTTAG,0.097
